Data: PubChem BioAssay AID1963576 (National Center for Advancing Translational Sciences (NCATS), 2024)
In all, about 46,000 compounds went through this assay and about 60 (0.1%) were called active. Not shown: some 3% with an inconclusive outcome. Calls follow the shape of the dose curve; as a rule, active = well fitted inhibition curve with a large enough effect; inconclusive = small, poorly fitted or top-dose-only effect; inactive = no such curve, though single readings can be large or run the other way. The list shows a part of the results.

experiment: Primary qHTS assay for Inhibitors of ovarian cancer metastasis using an organotypic tumor microenvironment (TME) model.; also: nearly all actives have a fitted effect of over 65% in size;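 as to activity change, negative = inhibition: plate controls were DMSO wells for no effect and tomatine positive control wells for full effect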; details: SKOV3ip1-GFP adhesion/invasion on 3D omental model, fluorescence; series mostly up to 45.8 µM; activity change, negative = inhibition: at the top concentration
How it was run: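 qHTS, 4-pt dose (0.36-46 umol/L); SKOV3ip1-GFP, 1,200 cells/well, no FBS; primary omental fibroblast/mesothelial co-culture 48 h pre-grown; 2 h RT + 16 h 37 C; PBS wash, 4% PFA; GFP count 488/509 nm.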

Activity change, negative = inhibition, inactive:
CCOc1ccccc1CNC(=O)CN1C(=O)CCn2nc(-c3cn(C)c4ccccc34)cc21 -2.3%
Cc1ccc(NC(=O)C(Cc2ccccc2)n2cccc2)c(C)c1 (stereo not given) -9.11%
CCOc1ccc(C(=O)c2oc3ccccc3c2NC(=O)c2cc(-c3ccccc3)on2)cc1 3.18%
COc1ccc2c(CNCc3cccs3)c(C(=O)O)n(Cc3ccc(F)cc3Cl)c2c1 -10.6%
COc1ccccc1-n1ncc2c(=O)[nH]c(SCC(=O)Nc3cccc(F)c3)nc21 9.57%
CC(C)CCOc1ccc(Oc2nc(N(C)C)nc(N(C)C)n2)nn1 -3.4%
CSc1cccc(N2C(=O)N(CC(=O)NCc3ccccc3Cl)c3ccccc3S2(=O)=O)c1 10.6%
CC(C)Oc1cccc(C(=O)Nc2ccc(-c3nc4cc(Cl)cc(Cl)c4o3)cc2)c1 0.314%
Cc1nnc(SCc2ccccc2Cl)c2cc3occc3n12 -9.49%
Cc1cc(Nc2ccc(C(C)C)cc2)nc(-n2nc(C)cc2C)n1 -16.8%
COc1ccc(NC(=O)CN(C)S(=O)(=O)c2ccc3c(c2)CCCN3C(C)=O)cc1Cl 9%
O=C(NC1CC(=O)N(c2ccc(F)cc2)C1)C1CCCCC1 (stereo not given) 19%
COc1ccccc1C(=O)Nc1ccccc1SCc1cc(=O)c2ccccc2[nH]1 -20.5%
O=C(NCc1ccccc1)c1cc2ccccc2o1 7.15%
COc1ccc(OC)c2sc(N(Cc3cccnc3)C(=O)c3ccc(C(C)=O)cc3)nc12 -3.68%
CCOc1ccc(-c2csc(-c3nc(-c4ccc(Br)s4)cs3)n2)cc1 3.08%
Cc1nnc(SCC(=O)NCc2ccc(N(C)C)cc2)c2nn(-c3ccccc3)c(C)c12 0.269%
COc1cccc(CNC(=O)Cn2c(SCC(=O)Nc3ccc(F)cc3)nc3ccccc32)c1 -15.6%
Cc1ccc2c(c1)-c1c(c(C(=O)NCCc3ccccc3)nn1C)CS2 2.79%
Cc1ccc(C)c(N2CCN(S(=O)(=O)c3ccc4c(c3)CC(=O)N4C)CC2)c1 -9.71%
Cc1ccc(C(=O)COC(=O)c2cccc(NC(=O)c3ccc(Br)cc3)c2)cc1 2.16%
CC(C)CCNC(=O)c1cccc(-n2cnc3cccnc32)c1 6.17%
Cc1cccc(N(CC(=O)Nc2cccc(Cl)c2C)S(C)(=O)=O)c1C 6.41%
CCOCCCNC(=O)c1[nH]c2cc(OC)ccc2c1Sc1ccccc1 -0.325%
COc1ccc(CCC(=O)NCc2nc3cccnc3n2Cc2ccc(C)cc2)cc1 9.71%
CCCN1C(=O)CN(C2CCCCC2)C(=O)C1c1ccc(OC)c(OC)c1 (stereo not given) -2.3%
CCCCCNS(=O)(=O)c1ccc(N2CCCCS2(=O)=O)cc1 0.028%
COC(=O)c1c(NC(=O)c2nc(SCc3ccc(C)cc3)ncc2Cl)sc2c1CCCC2 -5.59%
Cc1cccc(-n2ncc(C(=O)N3CCN(C(=O)c4ccco4)CC3)c2C2CCN(C(=O)OC(C)(C)C)CC2)c1 4.96%
COc1cccc([C@@H]2Nc3ccc(C(=O)O)cc3[C@@H]3C=CC[C@@H]32)c1OC 5.27%
Cc1ccc2c(=O)cc(C(=O)Nc3ccc(S(=O)(=O)Nc4onc(C)c4C)cc3)oc2c1 -0.794%
O=C(NC1CC1)c1ccc(Cn2c(SCc3ccccc3F)nc3cccnc32)cc1 8.93%
Cc1ccc(N2CC(NC(=O)c3ccc(Br)o3)CC2=O)cc1C (stereo not given) -3.89%
Cc1nn(CCC(=O)NCc2ccc(N(C)C)cc2)c(=O)c2nn(-c3ccccc3)c(C)c12 0.969%
CC(NC(=O)C(=O)Nc1c2c(nn1-c1ccccc1)CSC2)c1ccccc1 (stereo not given) -1.06%
COc1ccc(N2CCN(CC(O)COc3ccc(C(C)C)c(C)c3)CC2)cc1 (stereo not given) -2.77%
CCc1nnc(NC(=O)CSc2nccn2Cc2ccc(F)cc2)s1 -13.5%
Cc1c(-c2ccc(O)cc2)n(Cc2ccc(OCCN3CCCCCC3)cc2)c2ccc(O)cc12 1.54%
Cc1nnc(N2CCN(c3ccccc3F)CC2)c2c1nnn2Cc1ccccc1Cl -15.1%
CC(C)(C)c1ccc(C(=O)Nc2ccc(-c3nc4cc(Cl)ccc4o3)cc2)cc1 -7.51%
CCN(c1ccccc1)S(=O)(=O)c1nnc(NC(=O)COc2ccccc2F)s1 1.52%
C=Cc1c(C)c2cc3nc(cc4[nH]c(cc5nc(cc1[nH]2)C(C)=C5CCC(=O)O)c(CCC(=O)OC)c4C)[C@@]1(C)C3=CC=C(C(=O)OC)[C@H]1C(=O)OC 24.6%
Cc1cc(C)n(-c2nc3cc(Cl)c(Cl)cc3nc2Nc2c(C)cccc2C)n1 -1.93%
CC(=O)Nc1ccc(S(=O)(=O)Nc2ccc3c(c2)n(C)c(=O)n3C)c(C)c1 5.76%
Cc1ccc(Nc2cc(-c3ccccc3)nc(C)n2)cc1 -4.74%
COc1ccc(-c2[nH]ncc2C(=O)NCc2ccccc2OC)cc1 21.6%
Cc1ccc(NC(=O)CN(C)S(=O)(=O)c2cccc3nsnc23)c(C)c1 0.19%
COc1ccc(CNC(=O)C(=O)NCC(c2cccnc2)N2CCN(c3ccccc3F)CC2)cc1 (stereo not given) -11.9%
COc1ccc(OC)c(NC(=O)CCc2c(C)nc3c(-c4ccccc4)c(C)nn3c2C)c1 16.3%
COc1nc(Oc2ccc(=O)n(-c3ccccc3)n2)nc(N(C)C)n1 -1.1%
CCOC(=O)c1c(NC(=O)c2cc3ccccc3c(=O)o2)sc2c1CCCC2 0.314%
Cc1ccc(NC(=O)[C@H](Cc2ccccc2)N2Cc3ccccc3C2=O)cc1 21.2%
CCSC1=NC2(CCN(C(=O)NC3CCCCC3)CC2)N=C1c1ccc(C)c(C)c1 -11.1%
Cc1cccc(CSCCNC(=O)CN(c2ccccc2)S(=O)(=O)N(C)C)c1 4.73%
Cc1cc2n(n1)CCCN2C(=O)Nc1cccc(C)c1C -14.3%
Cc1cccc(Nc2nc3ccccc3n3c(N)nnc23)c1 3.95%
COc1cccc(N2CCN(c3ncc4c(n3)CCN(Cc3ccc(Br)cc3)C4)CC2)c1 -3.33%
Cc1ccc(Cn2c(=O)c3cccnc3n(Cc3ccc(F)cc3)c2=O)cc1 -2.87%
CCOc1ccc(-n2c(SC(C)C(=O)OC)nc3c([nH]c4ccccc43)c2=O)cc1 (stereo not given) -3.23%
COc1ccc(Cl)cc1NC(=O)c1nc(S(C)(=O)=O)ncc1N(Cc1ccc(C)cc1)Cc1ccco1 6.8%
Cc1cc2oc(C(=O)Nc3ccc(S(=O)(=O)Nc4onc(C)c4C)cc3)cc(=O)c2cc1C -21.3%
COc1ccccc1CNC(=O)CCC1N=C2c3ccccc3N=C(SCC(=O)NCCc3ccccc3)N2C1=O (stereo not given) 3.72%
Cc1c(C(=O)N(C)C)sc2c1c(=O)n(-c1ccc(F)cc1)c(=O)n2CC(=O)N(C)c1ccccc1 1.97%
Cc1cccc(CNC(=O)c2ccc(Cn3c(SCc4ccccc4)nc4cccnc43)cc2)c1 -26.3%
CCc1ccc2oc(C(=O)Nc3nc(-c4ccccc4)ns3)c(C)c2c1 -9.93%
Cc1ccccc1C(=O)Nc1sc2c(c1C(=O)N1CCC(C)CC1)CCCC2 -4.45%
O=C(CSc1nc(=O)[nH]c2c1CCCC2)NCc1ccc(Cl)cc1 -2.44%
NC[C@H](O)c1ccc(O)c(O)c1 -2.82%

outcome, inactive:
Cc1cc(=O)n2c(C(=O)Nc3ccc(F)c(Cl)c3)c(C(=O)Nc3cccc(C)c3C)sc2n1
CCOc1ccccc1N(C)C(=O)Cn1cnc2onc(-c3ccc(F)cc3)c2c1=O
Cc1ccc(NC(=O)CSc2nc(-c3cccs3)cc(C(F)(F)F)n2)cc1C
COc1cc(-c2noc(-c3ccc(NC4CCCCC4)c([N+](=O)[O-])c3)n2)cc(OC)c1OC
Cc1cccc2sc(N(Cc3cccnc3)C(=O)Cc3ccccc3)nc12
CCCCCn1c(=N)c(S(=O)(=O)c2ccccc2)cc2c(=O)n3cccc(C)c3nc21
CCOc1cc(/C=C(\C#N)C(=O)Nc2ccccc2C)ccc1OCc1cc(=O)n2nc(CC)sc2n1
O=C(c1ccc2c(c1)N(Cc1ccccc1F)C(=O)c1ccccc1S2=O)N1CCCCC1 (stereo not given)
CCN(CC)C(=O)Cn1c(=O)n(CCCCCC(=O)NCc2ccccc2)c(=O)c2sccc21
COc1ccc(-c2nc(C)c(CCNC(=O)c3cc(OC)c(OC)c(OC)c3)s2)cc1OC
COc1cccc(C(c2c(O)cc(C)n(Cc3ccco3)c2=O)N2CCC(C)CC2)c1 (stereo not given)
Cc1ccc(NC(=O)C2CCN(c3nnc(-n4cccc4)s3)CC2)cc1Cl
CCCN(C(=O)Cc1c(C(=O)O)[nH]c2ccc(Cl)cc12)c1ccc(OCC)cc1
Cc1cccc(CS(=O)(=O)Cc2ccc(C(=O)NC(C)c3ccccc3)o2)c1 (stereo not given)
COc1ccc(NC(=O)Cn2c(=O)n(CCC(=O)NCCc3ccc(OC)c(OC)c3)c(=O)c3ccccc32)cc1Cl
Cc1ccc2c(c1)c(=O)c(C(=O)c1ccncc1)cn2CC(=O)Nc1ccc(C(C)C)cc1
COc1ccc2nc3oc(C(=O)N(C)c4ccc(Cl)cc4)cc3cc2c1
CCOc1ccc(CC(=O)NC2CC(=O)N(c3ccc4c(c3)OCCO4)C2)cc1 (stereo not given)
CC(=O)Nc1ccccc1-c1nc2ccccc2n(C(C)C(=O)c2ccc(C)c(C)c2)c1=O (stereo not given)
COc1cc(C2C(=O)N(C3CCC(C)CC3)CC(=O)N2CCc2ccc(Cl)cc2)ccc1OC(C)C (stereo not given)
CCc1cccc(NC(=O)c2ccc3c(=O)n4nc(Nc5ccccc5OC)sc4nc3c2)c1
CCCN(CCC)CCNC(=O)c1cc(Sc2ccc(Cl)cc2)nc2ccccc12
Cc1ccc(S(=O)(=O)c2cn(CC(=O)Nc3ccc4c(c3)OCO4)c3ccc(F)cc3c2=O)cc1
Cc1ccc(OC(C)C(=O)NCC2(N3CCOCC3)CCCCC2)cc1C (stereo not given)
CCOC(=O)c1c(NC(=O)/C=C/c2ccc(OC)cc2)sc2c1CCC(C)C2 (stereo not given)
CCCCSCCCNC(=O)c1cc(-c2cccnc2)nc2ccc(S(=O)(=O)N3CCC(C)CC3)cc12

Potency, inactive:
CC(C=CC1=C(C)CCCC1(C)C)=CC=CC(C)=CC(=O)O
